Out of some 150,000 compounds screened, about 540 (0.36%) showed an effect of 50% or more. This is one part of the list.

The experiment deals with Plasmodium falciparum. Nature of the experiment: Primary screen in NF54 nanoGlo assay, in single point, at 2uM, 72h; a lower Z score goes with more inhibition. Format: functional, Erythrocyte. To be noted: timepoint 72 hour.
For the molecule `N#Cc1ccc(CN2C(=O)NC3(CCCCCCC3)C2=O)cc1`, the “% Inhibition” value is -4% and the Z score came out at 0.72.

As for `O=S(=O)(c1cc(F)ccc1F)N1CCC(c2noc(COCC3CC3)n2)CC1`, the “% Inhibition” value is reported as -2% and the Z score came to 0.28.

Take `c1ccc2c(-c3ncc(CN4CCCN5CCC[C@H]5C4)cn3)cccc2c1`: the “% Inhibition” value is given as 3% and the Z score is recorded as -0.62.

As to `COCCN1CCC[C@@H]1CNC1Cc2ccccc2C1`, the “% Inhibition” value is on record as -5% and the Z score turned out to be 0.53.

Turning to `O=C(Nc1ccc(Oc2ccccc2)cc1)C1CCN(S(=O)(=O)Cc2ccc(F)cc2)CC1`, the “% Inhibition” value is on record as -6% and the Z score amounted to 1.04.

Take `CN(C)c1noc(CN[C@H]2CCOC2)n1`: the “% Inhibition” value is -9% and the Z score was 0.91.

Turning to `COCCNC(=O)NCCn1nc(C2CC2)n(-c2ccccc2)c1=O`, the “% Inhibition” value is on record as -15% and the Z score is 1.67.

For the molecule `c1ccn2c(CNc3cnccn3)cnc2c1`, the “% Inhibition” value was -5% and the Z score was 0.96.

As to `CCc1nnc2n1C[C@@H](CNCc1cn3ccccc3c1C#N)CC2`, the “% Inhibition” value is reported as -2% and the Z score is given as 0.3.

Turning to `CC(C)CC(=O)Nc1ccc2c(c1)cc(C(=O)Nc1ccccc1)n2Cc1ccc(C(C)(C)C)cc1`, the “% Inhibition” value was found to be 30% and the Z score was -3.6.

As to `Cc1ccc(OCC(=O)N2CC[C@H](c3nc4ccncc4n3C(C)C)C2)cc1`, the “% Inhibition” value is -6% and the Z score was 0.54.

In the case of `COCC1(C(=O)NCc2cc3c(nc2OC)CN(C2CCCC2)C3=O)CCC1`, the “% Inhibition” value is on record as -4% and the Z score worked out at 0.58.

As for `O=C(NC1CCOC2(CCCCC2)C1)C1CCCN1C(=O)Cc1cccs1` (centres undefined), the “% Inhibition” value is recorded as -1% and the Z score was determined as 0.22.

Turning to `O=C(c1ccn2c(-c3ccccc3)nnc2c1)N1CCN(c2cccc(C(F)(F)F)c2)CC1`, the “% Inhibition” value is -10% and the Z score worked out at 1.17.

In the case of `O=C(CN1CCN(C2CCCCC2)C(=O)C1=O)NC1CCCCC1`, the “% Inhibition” value is recorded as -10% and the Z score is recorded as 1.21.

In the case of `O=C(C[C@H]1COc2ccccc2O1)Nc1ccccn1`, the “% Inhibition” value is -13% and the Z score is 1.66.

Regarding `CCc1nc(Cc2nc(Cc3ccccc3)no2)cs1`, the “% Inhibition” value is listed as -7% and the Z score was found to be 0.81.

For `CC(C)[C@@H]1CCCN1C(=O)CCc1c[nH]cn1`, the “% Inhibition” value is reported as -13% and the Z score is 1.34.

Take `O=C(N[C@H](c1ccncc1)c1ccc(Cl)cc1)c1cn(CCCc2ccccc2)nn1`: the “% Inhibition” value is -1% and the Z score came to 0.09.

In the case of `Cn1cc(C(N)=O)c(NC(=O)c2ccc(-c3cccs3)s2)n1`, the “% Inhibition” value is reported as -16% and the Z score is given as 1.83.

In the case of `CN(C)c1ccc(CN2CC[C@H](c3nc4ccccc4n3C)C2)cc1`, the “% Inhibition” value is listed as -13% and the Z score stood at 2.08.

In the case of `CC(C(=O)N1C(C)CC(c2ccccc2)C1C)C1CCOCC1` (centres undefined), the “% Inhibition” value is -12% and the Z score amounted to 1.7.

Consider `O=c1[nH]nc2n1CCN(Cc1ccc(F)c(Br)c1)CC2`, for which the “% Inhibition” value is 4% and the Z score is reported as -0.51.

On to `Cc1cccc([C@H](C)NC(=O)CCc2cn[nH]c2)n1`, for which the “% Inhibition” value is listed as -12% and the Z score is reported as 1.75.

Regarding `CN1CCC(CCO)(NC(=O)c2cc(F)cc3ccoc23)CC1`, the “% Inhibition” value is on record as -1% and the Z score is reported as 0.25.

For the molecule `COC(=O)N1CCC[C@H](NC(=O)Nc2cccc(OC(F)F)c2)C1`, the “% Inhibition” value came out at 2% and the Z score is recorded as -0.27.

`O=C(NCc1ccccc1F)c1ccc(CN2C(=O)CNC2=O)cc1`: the “% Inhibition” value was -5% and the Z score is reported as 0.5.

Regarding `C[C@H](NC(=O)c1nn(C)cc1Cl)c1nc(C2CC2)no1`, the “% Inhibition” value is given as -12% and the Z score worked out at 1.39.

Turning to `Cc1nc(C(C)C)sc1CNC(=O)c1cnc(N)s1`, the “% Inhibition” value was -14% and the Z score was determined as 1.58.

For `CC1CC(N[C@@H]2CCCC[C@H]2NC(=O)OC(C)(C)C)CC(C)O1` (some centres undefined), the “% Inhibition” value is listed as -2% and the Z score came to 0.27.

Consider `CCOC(=O)CCC(=O)N1CCC(Oc2ccc(C)nn2)CC1`, for which the “% Inhibition” value is given as -11% and the Z score turned out to be 2.1.

Regarding `CC1CCC(C)N1C(C)C(=O)NCc1ccc(F)c(CO)c1` (centres undefined), the “% Inhibition” value was -4% and the Z score is reported as 0.72.

As to `COC(=O)c1c(CS(=O)(=O)c2ccc(C)cc2)nn2c1CCCC2`, the “% Inhibition” value turned out to be 0% and the Z score is recorded as -0.05.

For the molecule `Cn1nc(CN2CCOCC2)c2c1CCN(S(=O)(=O)c1ccccc1)C2`, the “% Inhibition” value is on record as -15% and the Z score was found to be 2.78.

With `O=C(NCC1CN2CCCC2CO1)NC1CCCCC1` (centres undefined), the “% Inhibition” value was -4% and the Z score amounted to 0.6.

As for `O=C1N[C@]2(Nc3ccccc31)C(=O)Nc1cc3c(cc12)OCCO3`, the “% Inhibition” value was 1% and the Z score is reported as -0.09.

In the case of `N#Cc1c(-c2ccccc2)cc(C[C@H]2CCOC2)nc1N`, the “% Inhibition” value worked out at 6% and the Z score was -0.7.

On to `CCn1cc([C@H](CC(=O)NC2CCCCC2)c2cccc(Cl)c2)c2ccccc21`, for which the “% Inhibition” value is -3% and the Z score was 0.52.

On to `COC(=O)[C@H]1CCc2cnn(Cc3ccc(-n4cccn4)cc3)c2C1`, for which the “% Inhibition” value is -2% and the Z score is given as 0.35.

As for `CCN(CCOc1cccc(C)c1)C(=O)N[C@@H](C)Cn1cncn1`, the “% Inhibition” value is given as -1% and the Z score was 0.09.

`CCOc1ccc(NC2=NC(=O)[C@@H](C#N)C3(CCN(Cc4ccccc4)CC3)N2)cc1`: the “% Inhibition” value was found to be 34% and the Z score is reported as -0.64.

For `C[C@@H](Cn1c(=O)[nH]c2ccccc2c1=O)N(C)c1ccccc1`, the “% Inhibition” value is recorded as 33% and the Z score is -4.83.
